Source: the supplement of paper PMC8674133
Recombinant human monoclonal antibodies (heavy:light variable regions). ELISA EC50 on the named antigen, from 10 µg/ml down; IC50 / IC90 against spike pseudovirus on 293T-ACE2 cells, 48 h; lower = stronger. Calls: IC50 above 1,000 ng/ml = non-neutralizing; EC50 above 2,000 ng/ml = non-binder. The source prints 1000 for neutralization that was not reached; it is given as >1000 ng/ml. A few antibodies were first reported in earlier work of the same group.

Legend:
[1] = molecular target: SARS-CoV-2 Wuhan-Hu-1 spike pseudovirus; test: pseudovirus neutralization IC50; higher = weaker neutralization
Protocol: (§1)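 Single-round luciferase reporter pseudovirus mixed with antibody dilutions and put on 293T-ACE2 cells for 48 h; signal relative to no-antibody wells, four-parameter fit.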

[2] = molecular target: SARS-CoV-2 Wuhan-Hu-1 spike pseudovirus; test: pseudovirus neutralization IC90; higher = weaker neutralization
Protocol: as §1

[3] = molecular target: SARS-CoV-2 Wuhan-Hu-1 spike receptor-binding domain; test: ELISA binding EC50; higher = weaker binding; ELISA of recombinant human antibody on coated antigen, from 10 µg/ml in fourfold dilutions; four-parameter fit.

Row | Binder | pseudovirus neutralization IC50 [1] | pseudovirus neutralization IC90 [2] | ELISA binding EC50 [3]
1 | C1272 (protein) chain 1: QVQLQESGPGLVKPSETLSLTCTVSGGSIRSYYWSWIRQPPGKGLEWVGSIYYSGSTNYNPSLKSRVSVSVDTSKNQFSLKLTSVTAADTAVYYCARGPPGFDSWGQGTLVTVSS chain 2: DIQMTQSPSSLSASVGDRVTITCRASQGISNSLAWYQQKPGKAPKLLLYAASTLESGVPSRFSGSGSGTDFTLTISSLQPEDFATYYCQQYYSTTWTFGQGTKVEIK | 0.00168 µg/mL | 0.0377 µg/mL | 0.00194 µg/mL
2 | C1457 (protein) chain 1: QVQLVQSGAEVKKPGSSVKVSCKASGGTFSSYTISWVRQAPGQGLDWMGRIIPILGIANYAQKFQGRVTITADKSTSTAYMELSSLRSEDTAVYYCARDNVEGYNSSSIYWFDPWGQGTLVTVSS chain 2: QSVLTQPPSVSGAPGQRVTISCTGSSSNIGAGYDVHWYQQLPGTAPKLLIYDNSNRPSGVPDRFSGSKSGTSASLAITGLQAEDEADYYCQSYDSSLSDYVFGPGTKVTVL | 0.12 µg/mL | > 1 µg/mL | 0.00213 µg/mL
3 | C1450 (protein) chain 1: EVQLLESGGGLVQPGGSLRLSCAASGFTLSSYVMTWVRQAPGKGLEWVSVISGSSGSTYYADSVKGRFTISRDNSKNTLFLQMNSLSAEDTAVYYCAKTRTGWYVGFDYWGQGTLVTVSS chain 2: NFMLTQPHSVSESPGKTVTISCTRSSGSIASHYIQWYQQRPGSSPTTVIYEDNQRPSGVPDRFSGSIDSSSNSASLTISGLKTEDEADYYCQSYDSSKHWVFGGGTKLTVL | 0.112 µg/mL | > 1 µg/mL | 0.00194 µg/mL
4 | C1463 (protein) chain 1: QVQLVESGGGVVQPGRSLRLSCAASGFTFSNYAMHWVRQAPGKGLEWVAVISYDGSNKYYTDSVKGRFTISRDTSKNTLYLQMNSLRAEDTAVYFCARQLYYYDRSGFLHGDAFDIWGQGTMVTVSS chain 2: DIQMTQSPSSLSASVGDRVTITCRASQGISNYLAWYQQKPGKVPKLLIYAASTLQSGVPSRFSGSGSGTDFTLTISSLQPEDVATYYCQKYNSAPTWTFGQGTKVEIK | 0.0267 µg/mL | 0.378 µg/mL | 0.00174 µg/mL
5 | C1464 (protein) chain 1: VQLVESGGGLVKPGGSLRLSCAASGFTFSRYSMNWVRQSPGKGLEWVSSIRSSSTDIYYADSVRGRFTISRDNAKNSLYLQMNSLRAEDTAVYYCARAFPGDYASDDYYYYYGMDVWGQGTTVTVSS chain 2: SYELTQPPSVSVSPGQTASITCSGHKLGDKYACWYQQKPGQSPVLLIYQDSKRPSGISERFSGSNSGNTATLTISGTQAMDEADYFCQAWDSTTAWGVFGGGTKLTVL | 0.349 µg/mL | > 1 µg/mL | 0.00249 µg/mL
6 | C1459 (protein) chain 1: QVQLVQSGAEVKKPGASVKVSCKASGYSITTYYMHWVRQAPGQGLEWMGIINPSAGSTSYAQKFQGRVTMTRDTATSTVYMDLSSLRSEDTAVYYCARGGLIPDSTNWFDPWGQGTLVTVSS chain 2: EIVLTQSPATLSLSPGERATLSCRASQSVSSYLAWYQQKPGQAPRLLIYDASNRATGIPARFSGSGSGTDFTLTISSLEPEDFAVYYCQQRSNSFTFGPGTKVDIK | > 1 µg/mL | > 1 µg/mL | 0.00404 µg/mL
7 | C1274 (protein) chain 1: EVQLVESGGGLVQPGGSLRLSCAASGFTFSSYDMHWVRQVAGKGLEWVSAMGTAGDTYYADSVKGRFTISRENAKNSLYLQLNSLRAGDTAVYYCARGDTSMISETSQNYYYYYMDVWGKGTTVTVSS chain 2: DIQMTQSPSSLSASVGDRVTITCRASQSIRRYLNWYQQKPGKAPKLLIYAASSLQSGVPSRFSGSGSGTDFTLTISSLQPEDFATYYCQQSYSSPPWTFGQGTKVEIK | > 1 µg/mL | > 1 µg/mL | 0.00169 µg/mL
8 | C1461 (protein) chain 1: EVQLVESGGGLEQPGGSLRLSCAASGFSFSSYDMHWVRQVTGKGLEWVSAIGTSGDTYYSGSVKGRFTISRENAKNSLYLQMNNLRAGDTAVYYCARGTTVTTGPIRSYYYYMDVWGKGTTVTVSS chain 2: DIQMTQSPSSLSASVGDRVTITCRASQSISRYLNWYQQKPGKAPKVLIYAASSLQSGVPSRFSGSGSGTDFTLTISSLQVEDFATYYCQQSYSSPPWTFGQGTKVEIK | > 1 µg/mL | > 1 µg/mL | 0.00282 µg/mL
9 | C1451 (protein) chain 1: QVQLVQSGAEMKKPGASVKVSCKASGYTFINYGITWVRQAPGQGLEWMGWISAFNGNTNYAQNLQGRVTMSTDTSTSTAYMVLRSLRSDDTAVYYCARVGVGYCTSTSCYNQPSFDIWGQGTMVTVSS chain 2: QSVLTQPPSTSGTPGQRVTVSCSGSSSNIGNNAVNWYQQLPGTAPKLLIYSNDQRPSGVPDRFSGSKSGTSAFLAISGLQSEDEADYYCAAWDDSLNGHVVFGGGTKLTVL | 0.8 µg/mL | > 1 µg/mL | 0.0265 µg/mL
10 | C1205 (protein) chain 1: QVQLQESGPGLVKPSGTLSLTCAVSGGSISSRNWWSWVRQPPGKGLEWIGEIYHSGSTSYNPSLKSRVTISVDKSKNQFSLYLNSVTAADTAVYYCARSSGLLDYWGQGTLVTVSS chain 2: DIQMTQSPSSLSASVGDRVTITCRASQGISNSLAWYQQKPGKAPKLLLYAASTLESGVPSRFSGSGSGTDYTLTISSLQPEDFATYYCQQYYSTRTFGQGTKVEIK | 0.0107 µg/mL | 0.0507 µg/mL | 0.00249 µg/mL
11 | C2481 (protein) chain 1: EVQLVESGGGLVQPGGSLRLSCAASEILVSRNYMNWVRQAPGKGLEWVSIIYSGGSTFYADSVKGRFTISRDSSKNTLYLQMNSLRTEDTAVYYCARSYGDFYMDYWGQGTLVTVSS chain 2: DIQMTQSPSSLSASVGDRVTITCRATQAISNSLAWYQQKPGKAPKLLLYAASRLESGVPSRFSGSGSGTDYTLTISSLQPEDFATYFCQQYYTTPSITFGQGTRLEIK | 0.0066 µg/mL | 0.0332 µg/mL | 0.00131 µg/mL
12 | C1460 (protein) chain 1: QVQLVQSGGEVKKPGASVKVSCRASGYTFTSYSISWVRQAPGQGLEWMGWIYTYNGDTNYAQKLQGRVTMTTDTSTSTVYMELRSLRSDDTAVYYCARVETYYCSGGSCYFYDYWGQGTLVTVSS chain 2: EIVMTQSPATLSVSPGERATLSCRASQSVSSNLGWYQQKPGQAPRLLIYGASTRATGIPARFSGSGSGTEFTLTISSLQSEDFAVYYCQQYDNWPPTWTFGQGTKVEIK | 0.166 µg/mL | > 1 µg/mL | 0.00195 µg/mL
13 | C1269 (protein) chain 1: QVQLVQSGAEVKKPGASVKVSCKASGYTFTSQYMHWVRQAPGQGLEWMGIINPSAGSTSYAQKFQGRLTMTSDTSTSTVYMDLSSLRSEDTAVYYCARDIVFVPAAMGLDYWGQGTLVTVSS chain 2: IQMTQSPSSLSASVGDRVTITCRASQGIRNDLGWYQQKPGKAPKLLIYAASSLQSGVPSRFSGSGSGTDFTLTISSLQPEDFATYYCLQDYNYPWTFGQGTKVEIK | > 1 µg/mL | > 1 µg/mL | 0.00183 µg/mL
14 | C1265 (protein) chain 1: QLQLQESGPGLVKPSETLSLTCTVSGGSISSTNNYWGWIRQSPGTGLEWIGSIYYSGSTYYNPSLKSRVTISVDTSKNQFSLRLSSVTAADTAVYYCARLLGAVFGWGQGTLVTVSS chain 2: DIQMTQSPSSLSASVGDRVTITCRASQGISNSLAWYQQIPGKAPKLLLYAASTLESGVPSRFSGTASGTVYTLIISSLQPEDFATYYCQQYYSTPPLTFGGGTKVEIK | 0.00607 µg/mL | 0.0416 µg/mL | 0.00238 µg/mL
15 | C1455 (protein) chain 1: QVQLVQSGAEVKKPGSSVKVSCKASGGTFSSFIISWVRQAPGQGLEWMGRIIPIVGKANYAQKFQGRVTITADKSASTAYMELSSLRSEDTAVYYCAREDIEEVPAAFAYAFDIWGQGTMVTVSS chain 2: EIVLTQSPGTLSLSPGERATLSCRASQSLSSSYLAWYQQKPGQAPRLLIYGASSRATGIPDRFSGSGSGTDFTLTISRLEPEDFAVYYCQQFVTSPPSWTFGQGTKVEIK | 0.00207 µg/mL | 0.0659 µg/mL | 0.00118 µg/mL
16 | C1266 (protein) chain 1: EVQLVESGGGLIQPGGSLRLSCAASGITVSSNYMNWVRQAPGKGLQWVSVIYSGGSTFYADSVKGRFTISRDSSKNTLYLQMNSLRPEDTAVYYCARDLQVYGMDVWGQGTTVTVSS chain 2: DIQLTQSPSFLSASVGDRVTITCRASQGISSYLAWYQQKPGKAPKLLIYAASTLQSGVPSRFSGSGSGTEFTLTISSLQPEDFATYYCQQPNTYSISFGQGTRLEIK | 0.0116 µg/mL | 0.0532 µg/mL | 0.00208 µg/mL
